In the supplement of paper PMC9938546 one finds HCT116-GFP viability data, which are given here for 44 molecules.

Where a name gives a salt, the structure may show the parent alone. This is one part of the list. Most values come without repeats; read them as rough.
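Also: viability estimated indirectly by image-based GFP quantification with live-cell imaging of the constitutively GFP-expressing human colorectal cancer line, no immune cells added.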

In this experiment the test system is HCT116-GFP. Briefly: HCT116-GFP viability (GFP intensity) relative to untreated control, monoculture; higher = less cancer cell killing. Particulars: culture: HCT116-GFP monoculture; 10 µM; 72 h.
In the case of `NCCC[C@H](N)CC(=O)N[C@H]1CNC(=O)[C@H]([C@H]2C[C@H](O)NC(N)=N2)NC(=O)/C(=C/NC(N)=O)NC(=O)[C@H](CO)NC(=O)[C@H](CO)NC1=O` [Viomycin sulfate], the HCT116-GFP viability was determined as 15.7%.

With `NC(CO)C(=O)NNCc1ccc(O)c(O)c1O` (centres undefined) [Benserazide hydrochloride], the HCT116-GFP viability stood at 45.7%.

With `CN(C)CCCN1c2ccccc2CCc2ccccc21` [Imipramine hydrochloride], the HCT116-GFP viability was 92.1%.

With `O=C1c2cccc3c2[C@H](CCC3)CN1[C@@H]1CN2CCC1CC2` [Palonosetron hydrochloride], the HCT116-GFP viability was found to be 85%.

Regarding `NCC[C@H](O)C(=O)N[C@@H]1C[C@H](N)[C@@H](O[C@H]2O[C@H](CN)[C@@H](O)[C@H](O)[C@H]2O)[C@H](O)[C@H]1O[C@H]1O[C@H](CO)[C@@H](O)[C@H](N)[C@H]1O` [Amikacin hydrate], the HCT116-GFP viability was 93.8%.

As for `CC(C)CN(C[C@@H](O)[C@H](Cc1ccccc1)NC(=O)O[C@H]1CO[C@H]2OCC[C@H]21)S(=O)(=O)c1ccc(N)cc1` [Darunavir], the HCT116-GFP viability is 101%.

As to `OCCN1C[C@H](O)[C@@H](O)[C@H](O)[C@H]1CO` [Miglitol], the HCT116-GFP viability stood at 107%.

For `CC(C)C(=O)Nc1ccc([N+](=O)[O-])c(C(F)(F)F)c1` [Flutamide], the HCT116-GFP viability came to 88.3%.

On to `Cn1cnc([N+](=O)[O-])c1Sc1ncnc2[nH]cnc12` [Azathioprine], for which the HCT116-GFP viability worked out at 53.2%.

Take `C[C@@]1(O)CCOC(=O)C1` [Mevalonic-D, L acid lactone]: the HCT116-GFP viability was 88.3%.

Consider `COCC(=O)Nc1c(I)c(C(=O)NCC(O)CO)c(I)c(C(=O)N(C)CC(O)CO)c1I` (centres undefined) [Iopromide], for which the HCT116-GFP viability stood at 95.8%.

On to `O=C(O)CCCC[C@@H]1SC[C@@H]2NC(=O)N[C@@H]21` [Biotin], for which the HCT116-GFP viability came to 98.5%.

On to `CC1COc2c(N3CCN(C)CC3)c(F)cc3c(=O)c(C(=O)O)cn1c23` (centres undefined) [Ofloxacin], for which the HCT116-GFP viability stood at 109%.

In the case of `CC(=O)SCC(Cc1ccccc1)C(=O)NCC(=O)OCc1ccccc1` (centres undefined) [Racecadotril], the HCT116-GFP viability is 101%.

Turning to `C[C@H](CCC(=O)O)[C@H]1CC[C@H]2[C@@H]3CC[C@@H]4C[C@H](O)CC[C@]4(C)[C@H]3CC[C@]12C` [Lithocholic acid], the HCT116-GFP viability stood at 105%.

As for `COC(=O)C1=C(C)NC(C)=C(C(=O)OC(C)C)C1c1cccc2nonc12` (centres undefined) [Isradipine], the HCT116-GFP viability amounted to 87.8%.

With `CC(C)NCC(O)c1cc(O)cc(O)c1` (centres undefined) [Metaproterenol sulfate, orciprenaline sulfate], the HCT116-GFP viability stood at 100%.

For `O=C(O)CN(CCN(CC(=O)O)CC(=O)O)CCN(CC(=O)O)CC(=O)O` [Pentetic acid], the HCT116-GFP viability came out at 103%.

Consider `C#CCN(C)CCCOc1ccc(Cl)cc1Cl` [Clorgyline hydrochloride], for which the HCT116-GFP viability was determined as 93.2%.

In the case of `Cn1c(=O)c2c(ncn2CCO)n(C)c1=O` [Etofylline], the HCT116-GFP viability came to 96.6%.

For `COc1ccccc1N1CCN(CCCNc2cc(=O)n(C)c(=O)n2C)CC1` [Urapidil hydrochloride], the HCT116-GFP viability amounted to 99.1%.

As for `COc1nc(N)nc2c1ncn2[C@@H]1O[C@H](CO)[C@@H](O)[C@@H]1O` [Nelarabine], the HCT116-GFP viability is 103%.

For `CCC(=O)OCC(=O)[C@@]1(OC(=O)CC)[C@@H](C)C[C@H]2[C@@H]3CCC4=CC(=O)C=C[C@]4(C)[C@@]3(Cl)[C@@H](O)C[C@@]21C` [Beclomethasone dipropionate], the HCT116-GFP viability was 91.9%.

`CCN(CC)Cc1cc(Nc2ccnc3cc(Cl)ccc23)ccc1O` [Amodiaquin dihydrochloride dihydrate]: the HCT116-GFP viability was determined as 47.3%.

With `CC(=O)OCC1=C(C(=O)O)N2C(=O)[C@@H](NC(=O)Cc3cccs3)[C@H]2SC1` [Cephalothin sodium salt], the HCT116-GFP viability is 107%.

In the case of `Clc1ccc(C(Cn2ccnc2)OCc2csc3c(Cl)cccc23)c(Cl)c1` (centres undefined) [Sertaconazole nitrate], the HCT116-GFP viability is 46.4%.

As for `CCN(CC)CCNC(=O)COc1ccc(OC)cc1` [Mefexamide hydrochloride], the HCT116-GFP viability came out at 101%.

For the molecule `CC1(C)S[C@@H]2[C@H](NC(=O)Cc3ccccc3)C(=O)N2[C@H]1C(=O)O` [Benzylpenicillin sodium], the HCT116-GFP viability was found to be 110%.

`CC1(C)S[C@@H]2[C@H](NC(=O)Cc3ccccc3)C(=O)N2[C@H]1C(=O)O` [Benzathine benzylpenicillin]: the HCT116-GFP viability came to 99.2%.

Turning to `CCCCc1nc(Cl)c(CO)n1Cc1ccc(-c2ccccc2-c2nnn[nH]2)cc1` [Losartan], the HCT116-GFP viability was 102%.

Take `O=C1NCCN1CCN1CCC(c2cn(-c3ccc(F)cc3)c3ccc(Cl)cc23)CC1` [Sertindole]: the HCT116-GFP viability was 7.4%.

For `O=C1CCC(N2C(=O)c3ccccc3C2=O)C(=O)N1` (centres undefined) [Thalidomide], the HCT116-GFP viability amounted to 90.6%.

On to `O=C1OC(CN2CCOCC2)CN1/N=C/c1ccc([N+](=O)[O-])o1` (centres undefined) [Furaltadone hydrochloride], for which the HCT116-GFP viability was determined as 93.8%.

Regarding `CNCCCN1c2ccccc2CCc2ccccc21` [Desipramine hydrochloride], the HCT116-GFP viability is 84%.

On to `C[n+]1ccccc1/C=N/O` [Pralidoxime chloride], for which the HCT116-GFP viability is 102%.

As to `CCC(C)n1ncn(-c2ccc(N3CCN(c4ccc(OCC5COC(Cn6cncn6)(c6ccc(Cl)cc6Cl)O5)cc4)CC3)cc2)c1=O` (centres undefined) [Itraconazole], the HCT116-GFP viability was found to be 59.9%.

In the case of `Cc1cccc(Nc2ccccc2C(=O)O)c1C` [Mefenamic acid], the HCT116-GFP viability is 85.2%.

`O=C(O)CCNC(=O)c1ccc(/N=N/c2ccc(O)c(C(=O)O)c2)cc1` [Balsalazide Sodium]: the HCT116-GFP viability was determined as 121%.

For `CC(CN(C)C)CN1c2ccccc2Sc2ccccc21` (centres undefined) [Trimeprazine tartrate], the HCT116-GFP viability came to 75.3%.

For the molecule `CC1(C)[C@@H](OC(=O)CCC(=O)O)CC[C@]2(C)[C@H]3C(=O)C=C4[C@@H]5C[C@@](C)(C(=O)O)CC[C@]5(C)CC[C@@]4(C)[C@]3(C)CC[C@@H]12` [Carbenoxolone disodium salt], the HCT116-GFP viability worked out at 103%.

For the molecule `N=C(N)NCCN1CCCCCCC1` [Guanethidine sulfate], the HCT116-GFP viability was found to be 112%.

On to `C#C[C@]1(O)CC[C@H]2[C@@H]3CCC4=CC(=O)CC[C@@H]4[C@H]3CC[C@@]21CC` [Norgestrel-(-)-D], for which the HCT116-GFP viability is 104%.

As for `C=CCOC(Cn1ccnc1)c1ccc(Cl)cc1Cl` (centres undefined) [Enilconazole], the HCT116-GFP viability was 102%.

In the case of `CC(=O)OCC(=O)[C@@]1(OC(C)=O)[C@@H](C)C[C@H]2[C@@H]3C[C@H](F)C4=CC(=O)C=C[C@]4(C)[C@@]3(F)[C@@H](O)C[C@@]21C` [Diflorasone Diacetate], the HCT116-GFP viability was found to be 108%.
